Data as given in PubChem BioAssay AID1240 (Sanford-Burnham Center for Chemical Genomics, 2008).
Values joined by “and” are separate entries in the source; they are usually repeats but may differ in a detail not shown here. Equal values may be shown once. Screen size: about 50,000 compounds; about 800 (1.6%) showed an effect of 50% or more. This is one part of the list.

target: Bcl-2-like protein 10 (Homo sapiens) (UniProt Q9HD36); test: TR3 peptide-Bcl-B binding displacers, biochemical primary FP assay, phenotype converters (AID 1240); conditions: GST-Bcl-B / FITC-TR3 peptide fluorescence polarization; stronger effect = higher value; compound at 3.75 mg/L;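 note: 0% = Bcl-B with tracer peptide and DMSO and 100% = tracer peptide lacking Bcl-B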
Chain of UniProt Q9HD36 (Q9HD36 whole entry, looked up): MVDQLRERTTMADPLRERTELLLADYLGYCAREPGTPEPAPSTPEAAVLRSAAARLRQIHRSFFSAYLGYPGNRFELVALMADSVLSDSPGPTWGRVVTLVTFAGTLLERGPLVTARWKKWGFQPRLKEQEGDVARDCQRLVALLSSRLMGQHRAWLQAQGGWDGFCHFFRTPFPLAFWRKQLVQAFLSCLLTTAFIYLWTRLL

SMILES	displacement
CC(C)(C)c1ccc(C(=O)CC(=O)c2ccccc2O)cc1	-8.7%
Cc1ccc(-c2cc(C(F)(F)F)n3ncc(C(=O)NCCc4ccccc4)c3n2)cc1	-5.3%
CCc1ccc(/C=C2\C(=O)NN(c3ccc(Cl)c(Cl)c3)C2=O)cc1	5.7%
O=C1C(=O)N(c2cccnc2)C(c2ccc(O)cc2)/C1=C(\O)c1ccccc1 (configuration not stated)	-2.9%
CC1=C(C(=O)OCC2CCCO2)C(c2ccc(F)cc2)C2=C(CCCC2=O)N1 (configuration not stated)	4%
CC(C)(C)c1ccc(C2C(C(=O)c3ccco3)=C(O)C(=O)N2c2ncc(S(=O)(=O)c3ccc([N+](=O)[O-])cc3)s2)cc1 (configuration not stated)	8.3%
O=C(COc1ccc(C=C2C(=O)NC(=O)NC2=O)cc1)NCCc1ccccc1	82.5%
COc1cc(/C=C2\NC(=S)NC2=O)ccc1OC(=O)C12CC3CC(CC(C3)C1)C2	28.9%
C(=C\c1ccco1)/C=N/Nc1cccc2cccnc12	-16.5%
Cc1ccc(OCCOc2ccc(Br)cc2/C=C2/SC(=S)N(C)C2=O)cc1	8.8%
COc1ccc(N(CC(=O)N2CCOCC2)S(C)(=O)=O)c(OC)c1	-7.1%
C=CCc1cccc(C2Nc3ccccc3C(=O)N2O)c1O (configuration not stated)	1.7%
CCOC(=O)c1cc2cc(Cl)ccc2oc1=O	3.2%
O=C(O)C1C2CC/C=C\CC/C=C/CCC21 (configuration not stated)	-14%
CC1=C(C#N)c2nc(N)c(C#N)c(C)c2/C1=C/c1ccc(-c2cccc(C(=O)O)c2)o1	18.7%
CC(=O)Oc1ccccc1-c1nc(C)nn1C(C)=O	-1.8%
CS(=O)(=O)N(CC(=O)Nc1ccc(Oc2ccccc2)cc1)c1ccc(Br)cc1	12.4%
C#CCOc1ccc(/C=C2\C(=O)NC(=O)N(c3ccc(Cl)cc3)C2=O)cc1OC	-18.9%
COc1ccc(OCCSc2nnnn2-c2ccccc2)cc1	-4.2%
COc1ccc(NC(=O)C(=O)NCc2ccc(C)cc2)cc1Cl	12.1%
O=C(Nc1cccc2ccccc12)c1cc(I)ccc1Cl	0.4%
CCN(CC)CC#CC(O)(c1ccccc1)c1ccccc1	-5%
COc1cc(C2SCC(=O)N2c2c(C)n(C)n(-c3ccccc3)c2=O)ccc1O (configuration not stated)	17.8%

SMILES	displacement
N/C(=N/S(=O)(=O)c1ccc(Br)cc1)c1ccccc1	8.5%
CC(=O)N=c1cccc(NC(C)=O)n1O	5.8%
O=C(ON1C(=O)CCC1=O)c1cccnc1	2.4%
COc1cc(/C=N/N=C2c3ccccc3-c3ccccc32)cc(OC)c1OC	9.2%
Cn1c2ccccc2c2nnc(SCC(=O)NCc3ccco3)nc21	14.6%
O=C(Nc1ccc(F)c([N+](=O)[O-])c1)c1ccc(Br)o1	13%
COc1ccc(OC)c(C2/C(=C(\O)c3ccc(Br)cc3)C(=O)C(=O)N2c2ccccc2)c1 (configuration not stated)	-5.4%
COc1ccc(NC(=O)COc2ccc3ccccc3c2)c(OC)c1	-1.3%
COc1cc(/C=C2\C(=O)NC(=O)N(c3ccc(Cl)cc3)C2=O)cc(Cl)c1OC	-2.2%
CCC(C)NC(=O)/C(=C\c1ccc(OC(C)=O)c(OC)c1)NC(C)=O (configuration not stated)	0.8%
O=S(=O)(/N=C(/Nc1cccc(O)c1)c1ccccc1)c1ccc(Cl)cc1	12.5%
COc1cc(/C=C2\SC(NC(C)=O)=NC2=O)cc(Br)c1OC	11.8%
COc1cc(C2SCC(=O)N2CCN2CCCCC2)cc(OC)c1OC (configuration not stated)	-4.7%
COc1ccccc1CNC(=O)CC(c1ccccc1)c1ccccc1	4.4%
Cc1c(Br)c(=O)oc2cc(O)ccc12	-10.2%
CC(C)(O)C#Cc1ccc(C(=O)N2CCN(C(=O)c3ccc(C#CC(C)(C)O)cc3)CC2)cc1	-10.1%
CC(C)(C)NCC(O)COC1CCC(C(C)(C)C)CC1 (configuration not stated)	6.6%
COc1ccccc1/C=c1/sc2nc3c(Br)c(C)c(C)cc3n2c1=O	12.9%
Cc1cc(Cl)ccc1OCCCC(=O)Nc1nc2ccc(S(C)(=O)=O)cc2s1	10.2%
O=C(NCCCN1CCOCC1)/C(=C/c1ccc(-c2cccc(Cl)c2)o1)NC(=O)c1ccccc1	8.9%
COc1cc(-c2ncnn2-c2sc3c(c2C#N)CCCC3)ccc1O	4.9%
COc1ccc(/C=N/N2CCN(c3ccccc3)CC2)cc1Br	7.1%
COc1ccc(C(NC(=O)c2ccccc2F)c2ccc(OC)cc2)cc1	-50.5%

SMILES	displacement
COc1ccc(C2Nc3ccccc3C(=O)N2Cc2ccccc2)cc1COc1ccccc1F (configuration not stated)	1.2%
CCCCn1c(/N=C/c2ccc(OC)c3cccc(OC)c23)nc2ccccc21	12.7%
Cc1[nH]c2ccccc2c1/C=C/c1nc2ccccc2c(=O)n1-c1ccccc1[N+](=O)[O-]	8.7%
CC(=O)CC1C(C#N)=C(N(C)C)N(c2ccc([N+](=O)[O-])cc2)c2c1n(C)c1ccccc21 (configuration not stated)	30.5%
COc1ccc(Cl)cc1C(=O)Nc1ccc(Cl)c(-c2nc3ncccc3o2)c1	-3.3%
Cc1cccc(C)c1NC(=O)COc1ccc(Br)cc1	5.2%
CC1=C(C(=O)OC(C)C)C(c2ccc(Br)cc2)C2=C(CC(c3ccc(Cl)cc3)CC2=O)N1 (configuration not stated)	-12.9%
CCCc1ccc(OCC(=O)NNC(=O)C2COc3ccccc3O2)cc1 (configuration not stated)	-3.3%
O=S(=O)(Nc1ccc(Nc2ccccc2)cc1)c1ccc2ccccc2c1	11.8%
COc1cccc(C(=O)N2CCN(Cc3cc(OC)c(OC)cc3OC)CC2)c1	10.5%
COC(=O)c1ccc(-c2nc3sc4c(c3c(=O)[nH]2)CCCC4)cc1	-17.7%
O=C(O)CN1C(=O)S/C(=C/C(Cl)=C/c2ccc([N+](=O)[O-])cc2)C1=O	6.8%
CCN1C(=O)/C(=C\c2ccccc2O)C(C(=O)OC)=C1C	5.6%
O=C(Nc1cccc(I)c1)c1ccc2c(c1)C(=O)N(CC1CCCO1)C2=O (configuration not stated)	15.1%
COc1ccc(OC)c(C2/C(=C(\O)c3ccc(F)cc3)C(=O)C(=O)N2CCCCCC(=O)O)c1 (configuration not stated)	-14.6%
Cc1onc(-c2ccccc2Cl)c1C(=O)Nc1ccccc1C(N)=O	-5.2%
O=C(NCc1ccco1)c1ccccc1[N+](=O)[O-]	-8.7%
O=C1c2ccccc2C(=O)N1/N=C/c1ccccc1O	-5.4%
C=CCOc1c(I)cc(/C=C2/C(=O)NC(=O)N(c3cccc(C)c3)C2=O)cc1OC	12.1%
O=C(NC12CCC3CC(CC(C3)C1)C2)c1ccc(Br)cc1	1%
Brc1ccc(CSc2ncn[nH]2)cc1	1.1% and -20.1%
